Reference: the RNAGym collection of RNA variant scans (doi:10.7554/elife.90254)
The source gives no read counts; variants with many changes may rest on few reads.

B1: LINE1-mini (parent)
chain: GGCAGAGCUCAACACAGCGUGGCAAAGUGGCUGUGGCUAGACUGCC

Variants of: B1
Experiment: self-cleavage, relative activity (ratio to wild type); higher = more cleavage; in vitro, sequencing; the parent is a self-cleaving ribozyme

Variant | self-cleavage
G22C A24U A25U | 0.45
G2A C18U G44U | 0.3
C15U A39U G44C | 0.18
C37A C42A C45A C46U | 0.02
G5C C10U C13G A16C G44A | 0.04
C8A U9C C46G | 0.17
C8A C18G U34A | 0.13
G2A C23U U32A | 0.49
C3G U38C C46A | 0.16
G1C U9A U34A C37U A41G | 0
G27C U28A U34A G44A | 0.13
G2A G36A C37A | 0.81
G5C G19A U28A | 0.04
C10U G17C A25C U28A | 0.51
G1A A4C C13G G40U A41C | 0.06
A16G G22A G30U A39C | 0.02
A6C C15U G17A A25U C31A G40C | 0.03
C3U A4U U34G | 0.06
C15U C42A C45G | 0.01
G5C C13U A25U | 0.02
G7C G35U C45A | 0.1

Variant | self-cleavage
A12U C13U A14U | 0.03
A11G A16G C42A | 0.01
A4G C8G C31G | 0.06
A6C C15A U28A | 0.02
G7A C23A A26U C37A | 0.12
A4C A6C G17U U34G G35U | 0.2
G1C C10A A14U G40U U43G | 0.01
C23G G30U A39G | 0.02
C8G U9G A14C A16C A39C A41U | 0.01
A6G C18G C42A C46G | 0.04
A12G U20C G30A G40C | 0.03
C8A C18U C42A | 0.08
C23G G30U U43C | 0.07
G5C G29U C46U | 0.05
G2C A4U G29U G44U | 0.04
C10A A24C A25C G27U C37A A39U C46U | 0
A16U G30C C46A | 0.03
A4C A6C A14G C15A | 0.03
C10A A25U G33A A39U G40A | 0.01
A4U G40U A41C G44U C46G | 0.02
A6C C10A G19C G35U | 0.04

Variant | self-cleavage
G19A U20G C46A | 1.59
A6U A16C G33U | 0.13
C3A G7C G17U A24C U34C A41U | 0.06
G19U A25G G44U | 0.52
A4U C13G C45U | 0.03
A12G C31U U38C C42A | 0.05
G29U C31U C45U | 0.06
G2C C8U C13U U20G G36C G44A | 0.13
G2A G22U U43C | 0.08
G5A U34A G36A | 0.05
G1U A16G U20G | 0
G5A C10U C18U G19C U32C C42A | 0.04
A4G C15A C31A G35A C46A | 0.06
A4U G40A C42A C45U | 0.01
C13U A14U G19U U43A | 0.03
G5U C23G C37A | 0.04
A12C G27A C46G | 0.02
U9A A12C C13U U20A A24C A26G U34G | 0.04
G2C C3U U28G | 0.15
G22U C23A G33U U43A C45G | 0.03
C3U U9G U28C A41G | 0.06

Variant | self-cleavage
G21U G36C A41C | 0.11
C3G A4U C10U A11G G44A | 0.01
C13G G17U G19A A24U G27A G29C | 0.02
G7C A12U C23G G27U U43G G44U | 0.05
A12U A14G C18U G22U G40A | 0
A24U A26U U43A | 0.11
G2A C3U U28A | 1.62
G5U C18A G35U U43G | 0.01
A4C A12C C15U | 0.11
A4C A11U A14U | 0.01
A26G U32G U43C | 0.15
G7C G19C U20C G27U G36U | 0.02
A11U G40U U43A | 0
C3U G19A G35U U43G | 0.85
C18A A25G C31G | 0.04
G7A C8A C10U C13G G21A A39C | 0.12
C3A G19C G33U C42U | 0.03
C10A C31U G33A G44C | 0.04
C13U A16G G27U A41U | 0.07
G21C G22C U43C | 0.03
